Out of some 310,000 compounds screened, about 2,200 (0.71%) showed an effect of 50% or more. The effect is printed as a negative number. This is one part of the list.
Target: human ether-à-go-go-related gene (hERG) potassium channel (human, UniProt Q12809)
Test: primary screen, population patch clamp on CHO cells stably expressing hERG

human ether-à-go-go-related gene (hERG) potassium channel, sequence (Q12809 whole entry, looked up): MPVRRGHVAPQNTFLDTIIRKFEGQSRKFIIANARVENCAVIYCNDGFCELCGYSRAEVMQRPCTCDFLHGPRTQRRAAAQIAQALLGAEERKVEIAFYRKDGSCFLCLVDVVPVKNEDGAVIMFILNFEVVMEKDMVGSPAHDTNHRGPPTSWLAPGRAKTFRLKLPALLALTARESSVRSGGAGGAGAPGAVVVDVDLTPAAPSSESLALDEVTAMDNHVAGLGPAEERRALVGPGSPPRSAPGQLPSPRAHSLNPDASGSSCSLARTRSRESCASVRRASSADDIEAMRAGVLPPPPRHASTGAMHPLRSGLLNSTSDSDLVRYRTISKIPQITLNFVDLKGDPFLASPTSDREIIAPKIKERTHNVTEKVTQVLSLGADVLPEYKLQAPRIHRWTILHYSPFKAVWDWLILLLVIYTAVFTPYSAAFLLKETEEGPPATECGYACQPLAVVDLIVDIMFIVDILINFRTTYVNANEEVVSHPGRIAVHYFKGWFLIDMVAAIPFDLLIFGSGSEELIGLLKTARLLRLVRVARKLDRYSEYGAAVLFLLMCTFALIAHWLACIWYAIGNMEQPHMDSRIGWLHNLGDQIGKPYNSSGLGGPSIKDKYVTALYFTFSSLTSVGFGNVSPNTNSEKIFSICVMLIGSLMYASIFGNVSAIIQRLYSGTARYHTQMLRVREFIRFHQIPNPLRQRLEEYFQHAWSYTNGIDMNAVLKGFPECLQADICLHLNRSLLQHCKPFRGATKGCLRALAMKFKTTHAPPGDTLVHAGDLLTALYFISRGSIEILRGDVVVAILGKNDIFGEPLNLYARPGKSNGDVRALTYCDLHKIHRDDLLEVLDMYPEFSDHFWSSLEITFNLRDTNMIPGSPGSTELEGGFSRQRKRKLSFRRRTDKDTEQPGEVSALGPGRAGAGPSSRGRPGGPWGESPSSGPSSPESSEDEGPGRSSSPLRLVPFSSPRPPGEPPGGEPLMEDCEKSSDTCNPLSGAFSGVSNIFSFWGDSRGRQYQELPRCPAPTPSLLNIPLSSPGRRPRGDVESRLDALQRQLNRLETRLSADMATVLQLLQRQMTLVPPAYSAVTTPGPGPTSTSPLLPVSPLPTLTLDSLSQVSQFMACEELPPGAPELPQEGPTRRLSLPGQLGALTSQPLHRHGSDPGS

Question: For `CN(C)N=Nc1nc2c(c(=O)n(C)c(=O)n2C)n1C`, which “hERG current change (%, negative = inhibition) at 1uM” value is on record?
Answer: Its value is 17.8%.

Question: `Cc1ccc2nc(NC(=O)CSCC(=O)OCC(=O)c3ccc(Br)cc3)sc2c1` was tested. Which “hERG current change (%, negative = inhibition) at 1uM” value did it give?
Answer: The value was 13.7%.

Question: How did the “hERG current change (%, negative = inhibition) at 1uM” value turn out when `O=C(CN1C(=O)CCSc2ccc(S(=O)(=O)N3CCOCC3)cc21)Nc1cccc(F)c1` was run?
Answer: The value was 7.76%.

Question: How did the “hERG current change (%, negative = inhibition) at 1uM” value turn out when `CCN(CC)CCn1c2c(c(SCC(=O)Nc3cc(C)ccc3C)nc1=O)CCC2` was run?
Answer: Its value is -19.8%.

Question: Which “hERG current change (%, negative = inhibition) at 1uM” value does the source give for `CC(C)CC1(C)NC(=O)N(CCN2C(=O)c3ccccc3C2=O)C1=O` (stereo not drawn) here?
Answer: The value was 16.9%.

Question: With `COc1ccc(C(=O)N/C=C/n2cnc3cc(C(F)(F)F)ccc32)cc1` as the molecule, how does the “hERG current change (%, negative = inhibition) at 1uM” value read?
Answer: Its value is 5.92%.

Question: For `CC1CC2(C)Oc3ccccc3C3OCC1(CO)C(C)C32` (stereo not drawn), which “hERG current change (%, negative = inhibition) at 1uM” value is on record?
Answer: The value was 2.37%.

Question: How did the “hERG current change (%, negative = inhibition) at 1uM” value turn out when `COc1ccc(S(=O)(=O)NCCOc2ccccc2)cc1F` was run?
Answer: Its value is 10.1%.

Question: How did the “hERG current change (%, negative = inhibition) at 1uM” value turn out when `Cc1cc(C(=O)COC(=O)CNC(=O)c2ccccc2)c(C)n1CC1CCCO1` (stereo not drawn) was run?
Answer: The value was 13.2%.

Question: With `COC(=O)C1=C(c2cc3ccccc3o2)C[C@@H]2CC[C@H]1N2C(=O)N1CCC(C)CC1` as the molecule, how does the “hERG current change (%, negative = inhibition) at 1uM” value read?
Answer: The value was 8.42%.

Question: With `COc1cccc(/C=c2\s/c(=C/C(=O)c3ccc(C)cc3)[nH]c2=O)c1OC` as the molecule, how does the “hERG current change (%, negative = inhibition) at 1uM” value read?
Answer: Its value is -3.87%.

Question: For `Cc1ccc(C(=O)CC(=O)c2ccc(C)cc2O)cc1`, which “hERG current change (%, negative = inhibition) at 1uM” value is on record?
Answer: Its value is 16.5%.

Question: How did the “hERG current change (%, negative = inhibition) at 1uM” value turn out when `CCOc1ccc(CCNC(=O)COc2cccc(-n3cnnn3)c2)cc1OCC` was run?
Answer: The value was 5.06%.

Question: How did the “hERG current change (%, negative = inhibition) at 1uM” value turn out when `COc1ccc(C2C3=C(CCCC3=O)Nc3ccc4ncccc4c32)cc1OC` (stereo not drawn) was run?
Answer: The value was 5.93%.

Question: For `CCCc1nn(C)c(C(=O)Nc2ccc(Cl)cc2)c1Cl`, which “hERG current change (%, negative = inhibition) at 1uM” value is on record?
Answer: Its value is 5.89%.

Question: Which “hERG current change (%, negative = inhibition) at 1uM” value does the source give for `CCOCCCNC(=O)c1ccccc1SC` here?
Answer: Its value is -5.33%.

Question: Which “hERG current change (%, negative = inhibition) at 1uM” value does the source give for `Cc1ccc(NC(=O)CSc2nc(=O)cc(N)n2-c2ccccc2)cc1` here?
Answer: The value was 15.2%.

Question: How did the “hERG current change (%, negative = inhibition) at 1uM” value turn out when `CSc1nc2c(cc1C#N)CCCCC2` was run?
Answer: The value was 10.5%.

Question: For `CCCCN(CCCC)c1ncnc2nc[nH]c12`, which “hERG current change (%, negative = inhibition) at 1uM” value is on record?
Answer: Its value is 6.68%.

Question: `CN(C)CCNC=C(C(=O)Nc1ccc(Cl)cc1Cl)C(=O)Nc1ccc(Cl)cc1Cl` was tested. Which “hERG current change (%, negative = inhibition) at 1uM” value did it give?
Answer: The value was 8.97%.

Question: How did the “hERG current change (%, negative = inhibition) at 1uM” value turn out when `COC(=O)c1cc(C(=O)OC)n(Cc2ccc(C)cc2)c1C` was run?
Answer: The value was 5.63%.

Question: `CN(c1ccc(Cl)cc1)c1cc(=O)n(C)c2ccccc12` was tested. Which “hERG current change (%, negative = inhibition) at 1uM” value did it give?
Answer: The value was 1.74%.

Question: For `CCCNC(=O)C1CC(=O)N(c2ccc(OCC)cc2)C1` (stereo not drawn), which “hERG current change (%, negative = inhibition) at 1uM” value is on record?
Answer: The value was 2.85%.

Question: How did the “hERG current change (%, negative = inhibition) at 1uM” value turn out when `Cc1ccc2oc(C(=O)N(C)Cc3cnccn3)c(C)c2c1` was run?
Answer: The value was 7.3%.

Question: How did the “hERG current change (%, negative = inhibition) at 1uM” value turn out when `FC(F)C(F)(F)c1cc(-c2ccccc2)n[nH]1` was run?
Answer: The value was 12.6%.

Question: For `CCOc1cc(/C=C(\C#N)C(=O)NCc2cccnc2)ccc1O`, which “hERG current change (%, negative = inhibition) at 1uM” value is on record?
Answer: Its value is 5.63%.

Question: For `COc1ccccc1CNC(=O)C1CCN(S(=O)(=O)c2ccc(N3CCCC3=O)cc2)CC1`, which “hERG current change (%, negative = inhibition) at 1uM” value is on record?
Answer: Its value is 11.6%.

Question: For `COc1ccc(C(CNS(=O)(=O)c2ccc(F)cc2)N2CCN(C)CC2)cc1` (stereo not drawn), which “hERG current change (%, negative = inhibition) at 1uM” value is on record?
Answer: The value was 13.1%.

Question: For `O=C1CC(N2CCN(c3nc4ccccc4s3)CC2)C(=O)N1Cc1cccs1` (stereo not drawn), which “hERG current change (%, negative = inhibition) at 1uM” value is on record?
Answer: The value was -12.8%.

Question: For `c1ccc(N2CCN(c3ccccc3)C2c2ccncc2)cc1`, which “hERG current change (%, negative = inhibition) at 1uM” value is on record?
Answer: The value was 5.52%.

Question: For `Nn1c(COc2ccccc2)nnc1SCC(=O)O`, which “hERG current change (%, negative = inhibition) at 1uM” value is on record?
Answer: Its value is 7.83%.

Question: For `COc1cc(CC(=O)N2CCc3ccccc32)cc(OC)c1OC`, which “hERG current change (%, negative = inhibition) at 1uM” value is on record?
Answer: The value was 10.7%.

Question: Which “hERG current change (%, negative = inhibition) at 1uM” value does the source give for `CCn1c(=NC(=O)CS(=O)(=O)c2ccccc2)sc2cccc(OC)c21` here?
Answer: Its value is 1.27%.

Question: How did the “hERG current change (%, negative = inhibition) at 1uM” value turn out when `CCOc1ccc(CCNC(=O)CSc2nnnn2C)cc1OCC` was run?
Answer: Its value is 5.77%.

Question: Which “hERG current change (%, negative = inhibition) at 1uM” value does the source give for `CCCSc1nc2c(c(=O)n1CC)SC(C)C2` (stereo not drawn) here?
Answer: The value was 9.66%.

Question: How did the “hERG current change (%, negative = inhibition) at 1uM” value turn out when `CCOC(=O)/C(C(C)=O)=C1\OC(=O)c2ccccc21` was run?
Answer: Its value is 8.9%.

Question: Which “hERG current change (%, negative = inhibition) at 1uM” value does the source give for `CNC(=O)CN(C)S(=O)(=O)c1ccc(OC)c(Cl)c1` here?
Answer: The value was 14.3%.

Question: With `CCCC1Cc2c(sc3nc(SC)nc(N)c23)CO1` (stereo not drawn) as the molecule, how does the “hERG current change (%, negative = inhibition) at 1uM” value read?
Answer: Its value is 10.7%.

Question: How did the “hERG current change (%, negative = inhibition) at 1uM” value turn out when `CCOC(=O)c1cccc(-c2ccc(C=O)o2)c1` was run?
Answer: The value was 5.37%.

Question: How did the “hERG current change (%, negative = inhibition) at 1uM” value turn out when `CCN(CC)CCCNC(=O)C(C)n1c2ccccc2c2nc(=O)cc(C)n21` (stereo not drawn) was run?
Answer: Its value is 12.7%.

Question: With `CCN(CC)S(=O)(=O)c1cccc(-c2cn3cccnc3n2)c1` as the molecule, how does the “hERG current change (%, negative = inhibition) at 1uM” value read?
Answer: The value was -5.4%.

Question: How did the “hERG current change (%, negative = inhibition) at 1uM” value turn out when `CCN(CC)S(=O)(=O)c1cc(C(=O)O)ccc1Cl` was run?
Answer: The value was 11.2%.

Question: `O=C1CCC(=O)N1c1ccc(S(=O)(=O)Nc2ccc(Br)cc2)cc1` was tested. Which “hERG current change (%, negative = inhibition) at 1uM” value did it give?
Answer: The value was 14.7%.

Question: `CC(=O)C1=C(O)C(=O)N(c2nccs2)C1c1ccccc1` (stereo not drawn) was tested. Which “hERG current change (%, negative = inhibition) at 1uM” value did it give?
Answer: The value was 5%.

Question: For `CCCOc1ccc(/C=C/c2[nH]c(=O)[nH]c(=O)c2[N+](=O)[O-])cc1OCC`, which “hERG current change (%, negative = inhibition) at 1uM” value is on record?
Answer: The value was 6.12%.

Reference: article PMC4336329 (PLoS ONE, 2015)
